Test results published in article PMC5481654, “Identification of the anti-mycobacterial functional properties of piperidinol derivatives” (British journal of pharmacology, 2017).
In brackets after ≈: the same amount, converted by molar mass. Like-named read-outs stand apart in the source and are kept apart here.

Experiments:
M. bovis BCG = details: ref Abuhammad et al., 2014; cited from earlier work
M. smegmatis = experiment: MIC by resazurin reduction microplate assay (REMA); type: cell-based, M. smegmatis MC^2155
E. coli = experiment: MIC by REMA; type: cell-based, Escherichia coli; details: Escherichia coli
[1] = system: NAT enzyme from M. marinum; set-up: method as in earlier work; details: covalent adduct with active site cysteine, ref Abuhammad et al., 2010, 2012, 2014; cited from earlier work
P. putida = experiment: MIC by REMA; type: cell-based, Pseudomonas putida; details: Pseudomonas putida; P. putida, mean ± SEM, n = 5
M. tuberculosis = system: M. tuberculosis; set-up: method as in Jeney and Zsolnai, 1956; Abuhammad et al., 2012; details: ref Jeney and Zsolnai, 1956, Abuhammad et al., 2012; cited from earlier work
[2] = system: M. smegmatis:aroB / M. smegmatis:pMV261; experiment: MIC by REMA against aroB-overexpressing and empty-vector strains; details: for MIC: Mycolicibacterium smegmatis, mean ± SEM; for effect of overexpression of aroB on susceptibility: compared with the wild-type strain
[3] = type: in vitro ADME; details: CD-1, mouse, microsomes, 1 μg·mL, pH 7.4
[4] = M. smegmatis, Table 1, mean ± SEM, n = 5
[5] = Mycolicibacterium smegmatis, M. smegmatis WT, Table 2, mean ± SEM, read-out: MIC
[6] = Mycolicibacterium smegmatis, MC^2155, M. smegmatis mc^2155 – wild type, Table 4, mean ± SEM, read-out: MIC
[7] = M. smegmatis:aroB (overexpression from pMV261)
[8] = M. smegmatis:pMV261 (empty vector)

For `CN1CCC(O)(c2ccccc2)C(C(=O)c2ccccc2)C1` (stereo not drawn) [Compound 1], the MIC (M. bovis BCG) is given as 6.25 to 12.5 µg/mL, the MIC (M. smegmatis; [4]) is given as 62.5 ± 0 µg/mL (≈ 212 µM) and the MIC (M. smegmatis; [5]) is given as 56.2 ± 6.3 µg/mL (≈ 190 µM). The MIC (M. smegmatis; [6]) was 56.2 ± 6.3 µg/mL (≈ 190 µM), the MIC (E. coli) was 250 µg/mL (≈ 846 µM) and the “inhibition of NAT enzyme” value [1] was “inhibits”. For the same compound, the MIC (P. putida) was 250 µg/mL (≈ 846 µM), the MIC (M. tuberculosis) was 5 µg/mL (≈ 16.9 µM) and the MIC [2, 7] was 112 ± 12.5 µg/mL (≈ 381 µM). The MIC [2, 8] was 112 ± 12.5 µg/mL (≈ 381 µM) and the “effect of overexpression of aroB on susceptibility” value [2] was “partial resistance”.
`CN(CCC(=O)c1ccccc1)CCC(=O)c1ccccc1` [Compound 2, 3,3′-(methylazanediyl)bis(1-phenylpropan-1-one)] gave an MIC (M. smegmatis; [4]) of 125 ± 0 µg/mL (≈ 423 µM), an MIC (M. smegmatis; [5]) of 112 ± 12.5 µg/mL (≈ 381 µM) and an MIC (M. smegmatis; [6]) of 112 ± 12.5 µg/mL (≈ 381 µM). For the same compound, the MIC (E. coli) was 250 µg/mL (≈ 846 µM), the MIC (P. putida) was greater than 500 µg/mL and the CLint [3] was greater than 48 μL·min^−1·mg^−1 protein. The MIC [2, 7] was 300 ± 49.9 µg/mL (≈ 1020 µM), the MIC [2, 8] was 275 ± 61.2 µg/mL (≈ 931 µM) and the “effect of overexpression of aroB on susceptibility” value [2] was “partial resistance”.
`CO[C@H]1/C=C/O[C@@]2(C)Oc3c(C)c(O)c4c(O)c(c(/C=N/N5CCN(C)CC5)c(O)c4c3C2=O)NC(=O)/C(C)=C\C=C\[C@H](C)[C@H](O)[C@@H](C)[C@@H](O)[C@@H](C)[C@H](OC(C)=O)[C@@H]1C` [Rifampicin, reference compound] gave an MIC (M. smegmatis; [5]) of 3.2 ± 0.5 µg/mL (≈ 3.89 µM), an MIC (M. smegmatis; [6]) of 7.5 ± 1.1 µg/mL (≈ 9.11 µM) and an MIC [2, 7] of 7.5 ± 1.1 µg/mL (≈ 9.11 µM). It also gave an MIC [2, 8] of 7.5 ± 1.1 µg/mL (≈ 9.11 µM).
